The supplement of paper PMC8728848
This is one part of the list.

What was measured:
Assay in all cases: glycan array binding signal (z-score within array); higher = stronger binding
Conditions in all cases: glycan notation: IUPAC condensed, linker removed
[1] = molecular target: Fuc(a1-3)[Gal(b1-4)]GlcNAc6S
How it was run: (§1)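 From the Consortium for Functional Glycomics database, 3228 arrays were curated, keeping only those whose protein sequence was available. Binding is given as a within-array Z-score averaged across arrays sharing a protein sequence and across linkers. Negative Z-scores can be read as non-binding.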

[2] = molecular target: Fuc(a1-3)[Gal3S(b1-4)]Glc
How it was run: as §1

[3] = molecular target: Fuc(a1-3)[Gal3S(b1-4)]GlcNAc
How it was run: as §1

[4] = molecular target: Fuc(a1-3)[Gal3S(b1-4)]GlcNAc6S
How it was run: as §1

[5] = molecular target: Fuc(a1-3)[GalNAc(b1-4)]GlcNAc
How it was run: as §1

[6] = molecular target: Fuc(a1-3)[GalNAc(b1-4)]GlcNAc6S
How it was run: as §1

Fuc(a1-4)GlcNAc = molecular target: Fuc(a1-4)GlcNAc
How it was run: as §1

Fuc(b1-3)GlcNAc = molecular target: Fuc(b1-3)GlcNAc
How it was run: as §1

Gal(a1-2)Gal = molecular target: Gal(a1-2)Gal
How it was run: as §1

Gal(a1-3)Gal = molecular target: Gal(a1-3)Gal
How it was run: as §1

Gal(a1-3)Gal(b1-3)GlcNAc = molecular target: Gal(a1-3)Gal(b1-3)GlcNAc
How it was run: as §1

[7] = molecular target: Gal(a1-3)Gal(b1-3)GlcNAc(b1-2)Man
How it was run: as §1

[8] = molecular target: Gal(a1-3)Gal(b1-3)GlcNAc(b1-2)Man(a1-3)[Gal(a1-3)Gal(b1-3)GlcNAc(b1-2)Man(a1-6)]Man(b1-4)GlcNAc(b1-4)GlcNAc
How it was run: as §1

[9] = molecular target: Gal(a1-3)Gal(b1-3)GlcNAc(b1-3)GalNAc
How it was run: as §1

[10] = molecular target: Gal(a1-3)Gal(b1-3)GlcNAc(b1-6)GalNAc
How it was run: as §1

[11] = molecular target: Gal(a1-3)Gal(b1-3)[Fuc(a1-4)]GlcNAc(b1-2)Man(a1-3)[Gal(a1-3)Gal(b1-3)[Fuc(a1-4)]GlcNAc(b1-2)Man(a1-6)]Man(b1-4)GlcNAc(b1-4)GlcNAc
How it was run: as §1

Gal(a1-3)Gal(b1-4)Glc = molecular target: Gal(a1-3)Gal(b1-4)Glc
How it was run: as §1

Gal(a1-3)Gal(b1-4)GlcNAc = molecular target: Gal(a1-3)Gal(b1-4)GlcNAc
How it was run: as §1

[12] = molecular target: Gal(a1-3)Gal(b1-4)GlcNAc(b1-2)Man
How it was run: as §1

[13] = molecular target: Gal(a1-3)Gal(b1-4)GlcNAc(b1-2)Man(a1-3)[Gal(a1-3)Gal(b1-4)GlcNAc(b1-2)Man(a1-6)]Man(b1-4)GlcNAc(b1-4)GlcNAc
How it was run: as §1

[14] = molecular target: Gal(a1-3)Gal(b1-4)GlcNAc(b1-3)GalNAc
How it was run: as §1

[15] = molecular target: Gal(a1-3)Gal(b1-4)GlcNAc(b1-6)GalNAc
How it was run: as §1

[16] = molecular target: Gal(a1-3)Gal(b1-4)[Fuc(a1-3)]GlcNAc
How it was run: as §1

[17] = molecular target: Gal(a1-3)Gal(b1-4)[Fuc(a1-3)]GlcNAc(b1-2)Man(a1-3)[Gal(a1-3)Gal(b1-4)[Fuc(a1-3)]GlcNAc(b1-2)Man(a1-6)]Man(b1-4)GlcNAc(b1-4)GlcNAc
How it was run: as §1

Gal(a1-3)GalNAc = molecular target: Gal(a1-3)GalNAc
How it was run: as §1

[18] = molecular target: Gal(a1-3)[Gal(a1-4)]Gal(b1-4)GlcNAc
How it was run: as §1

[19] = molecular target: Gal(a1-4)Gal(b1-3)GlcNAc(b1-2)Man(a1-3)[Gal(a1-4)Gal(b1-3)GlcNAc(b1-2)Man(a1-6)]Man(b1-4)GlcNAc(b1-4)GlcNAc
How it was run: as §1

Gal(a1-4)Gal(b1-4)Glc = molecular target: Gal(a1-4)Gal(b1-4)Glc
How it was run: as §1

Gal(a1-4)Gal(b1-4)GlcNAc = molecular target: Gal(a1-4)Gal(b1-4)GlcNAc
How it was run: as §1

[20] = molecular target: Gal(a1-4)Gal(b1-4)GlcNAc(b1-2)Man(a1-3)[Gal(a1-4)Gal(b1-4)GlcNAc(b1-2)Man(a1-6)]Man(b1-4)GlcNAc(b1-4)GlcNAc
How it was run: as §1

[21] = molecular target: Gal(a1-4)Gal(b1-4)GlcNAc(b1-3)Gal(b1-4)Glc
How it was run: as §1

Gal(a1-4)GlcNAc = molecular target: Gal(a1-4)GlcNAc
How it was run: as §1

Gal(a1-6)Glc = molecular target: Gal(a1-6)Glc
How it was run: as §1

Gal(b1-2)Gal = molecular target: Gal(b1-2)Gal
How it was run: as §1

Gal(b1-3)Gal = molecular target: Gal(b1-3)Gal
How it was run: as §1

Gal(b1-3)Gal(b1-4)GlcNAc = molecular target: Gal(b1-3)Gal(b1-4)GlcNAc
How it was run: as §1

Gal(b1-3)GalNAc = molecular target: Gal(b1-3)GalNAc
How it was run: as §1

B1: AMA (Arum maculatun) (protein)
chain: MAKLLLLLLLPAIVGLAVPRSAAAVGSNYMLSGETLNTDGRLTNGELTLIMQVDCNLVLYHGGWQSNTANNGRDCKLTLTDFGELVIKSGTGSTVWSSGSKQSMKGNYAAVVHPEGRLVIYGPSVFKINPSGAGLNGLPLRNIPLTNNMLFSGQVLYGDGTLSARNHKLVMQGDCNMVLYGGKYGWQSNTHGNGKYCFAMLTHKGELVIRDDDFKSVWSSKSSSKQGDYVFILQDDSLAIIYGPAVFSTGSKKMISMVTN
[1]
  glycan array binding signal (z-score): -0.201
[2]
  glycan array binding signal (z-score): -0.214
[3]
  glycan array binding signal (z-score): -0.226
[4]
  glycan array binding signal (z-score): -0.217
[5]
  glycan array binding signal (z-score): -0.156
[6]
  glycan array binding signal (z-score): -0.2
Fuc(a1-4)GlcNAc
  glycan array binding signal (z-score): -0.222
Fuc(b1-3)GlcNAc
  glycan array binding signal (z-score): -0.164
Gal(a1-2)Gal
  glycan array binding signal (z-score): -0.216
Gal(a1-3)Gal
  glycan array binding signal (z-score): -0.22
Gal(a1-3)Gal(b1-3)GlcNAc
  glycan array binding signal (z-score): -0.21
[7]
  glycan array binding signal (z-score): -0.191
[8]
  glycan array binding signal (z-score): -0.196
[9]
  glycan array binding signal (z-score): -0.217
[10]
  glycan array binding signal (z-score): -0.216
[11]
  glycan array binding signal (z-score): -0.17
Gal(a1-3)Gal(b1-4)Glc
  glycan array binding signal (z-score): -0.212
Gal(a1-3)Gal(b1-4)GlcNAc
  glycan array binding signal (z-score): -0.206
[12]
  glycan array binding signal (z-score): -0.212
[13]
  glycan array binding signal (z-score): 1.15
[14]
  glycan array binding signal (z-score): -0.217
[15]
  glycan array binding signal (z-score): -0.216
[16]
  glycan array binding signal (z-score): -0.217
[17]
  glycan array binding signal (z-score): -0.083
Gal(a1-3)GalNAc
  glycan array binding signal (z-score): -0.206
[18]
  glycan array binding signal (z-score): -0.196
[19]
  glycan array binding signal (z-score): 5.86
Gal(a1-4)Gal(b1-4)Glc
  glycan array binding signal (z-score): -0.214
Gal(a1-4)Gal(b1-4)GlcNAc
  glycan array binding signal (z-score): -0.207
[20]
  glycan array binding signal (z-score): 1.76
[21]
  glycan array binding signal (z-score): -0.216
Gal(a1-4)GlcNAc
  glycan array binding signal (z-score): -0.135
Gal(a1-6)Glc
  glycan array binding signal (z-score): -0.214
Gal(b1-2)Gal
  glycan array binding signal (z-score): -0.128
Gal(b1-3)Gal
  glycan array binding signal (z-score): -0.222
Gal(b1-3)Gal(b1-4)GlcNAc
  glycan array binding signal (z-score): -0.208
Gal(b1-3)GalNAc
  glycan array binding signal (z-score): -0.217
